# Hit rate of the full screen: of about 410,000 compounds, about 5,000 (1.2%) were called active. About 13% were inconclusive and are not listed. The call rests on the fitted dose curve; in most records, active means well fitted inhibition curve with a large enough effect; inconclusive means small, poorly fitted or top-dose-only effect; inactive means no such curve, though single readings can be large or run the other way. A structure can be active in one record and inactive in another. Certain results were filed several times, with different values. The list is limited to them. The source may hold further records. The records of an entry repeat one measurement (runs, samples, wells, individuals or studies). Brackets tell where a record comes from. Letters hold for one entry only.
# Experiment: qHTS for Inhibitors of TGF-b; further: nearly all actives have a fitted effect of over 65% in size
# Settings: HepG2 CAGA-GFP TGF-b/SMAD3 reporter, GFP fluorescence, 18 h, TGF-beta stimulated, 500 pg/mL final; series mostly up to 46.1 µM
# Source text: TGF-b is a main component in the TGF-b signaling pathway which plays diverse roles in cellular and development pathways. TGF-b is the mediated by the transcription factors Smads. Although the Smad-dependent pathway is the primary canonical TGF-b signaling node, TGF-b1 can also activate alternative signaling pathways, including those involving MAPK (ERK, JNK and p38). This interaction may mediate or enhance Smad-dependent responses, or can exert Smad-independent effects. The complexity of this signaling cascade allows the TGF-b superfamily to perform unique, overlapping or redundant functions. We believe that targeting the TGF-beta pathway at the Smad-transcription factor level may eliminate the consequences of disrupting the entire pathway and offer specificity without affecting other signaling pathways. Smad3 is the primary transducer of TGF-b's signals and Smad3 regulates many functions attributed to TGF-b signaling. We hypothesize that Smad3 inhibitors will selectively eliminate Smad3-specific TGF-beta signals without undesired off-target effects. We aim to identify Smad3-small molecule antagonists using a quantitative high throughput screening (qHTS) approach.
# A high-throughput assay was developed to screen the NIH Molecular Libraries Small Molecule Repository (MLSMR). This is a cell based assay, where TGF-b is tagged with GFP. A counterscreen is run that looks at cytotoxicity (please see summary AID).
# MH087449NIH Chemical Genomics Center [NCGC]
# NIH Molecular Libraries Probe Centers Network [MLPCN]
# Assay Submitter (PI): Sushil Rane, National Institute of […]
# Suspensions of trypsinized HEPG2 CAGA-GFP cells were dispensed into white, tissue culture-treated, solid 1536-well plates at 5uL/well (1000 cells/well final concentration) in DMEM medium supplemented with 1% FBS. Plates were incubated at 37 degrees C for 2 hours, after which 23 nL of compounds or DMSO were delivered to each well using a pin tool. One uL of recombinant TGF-beta in DMEM (1% FBS) was then dispensed (500 pg/mL final concentration), and plates were incubated at 37 degrees C for 18 hours. The plates were measured on an Acumen eX3 Explorer plate reader for GFP fluorescence (ex488/em500-530). GFP values were calculated by determining the mean GFP fluorescence of individual cells, and compiling these values for each well to determine a total well GFP signal. The %Activity was determined from the corrected fluorescence values. A titration of the known TGF-B inhibitor SB431542 was included to monitor plate performance, while unstimulated HEPG2 (-TGF-B) control wells were used to normalize %Activity of identified inhibitors; unstimulated wells corresponded to 100%Activity (full inhibition), while stimulated cell controls (+DMSO) were used to normalize 0%Activity (no inhibition).
# Concentration-response curves were fitted to the signals arising from the resulting fluorescence. The concentration-effect curves were then classified based on curve quality (r2), response magnitude and degree of measured activity, and compounds were subsequently categorized based on their curve class.
# Potency means the concentration at half of the fitted maximal effect.
row,SMILES,Potency
1,CCc1ccc(CNC(=O)C2CCN(c3nnc(C)c4c(C)n(-c5ccc(C)cc5)nc34)CC2)cc1,active: 8.91 µM [sample A] and inactive [sample B]
2,CCCCCCNS(=O)(=O)c1ccccc1Br,active: 15.8 µM [sample A] and inactive [sample B]
3,O=C(C[C@H]1C(=O)N(c2ccc(F)c(F)c2)C[C@@H]1Cc1ccccc1)Nc1ccccc1,inactive [sample A] and active: 15.8 µM [sample B]
4,Cc1ccccc1CN1C(=O)c2ccccc2Sc2ccc(C(=O)NCCCN3CCOCC3)cc21,inactive [sample A] and active: 11.2 µM [sample B]
5,CCOC(=O)/C=C/c1ccc(C(F)(F)F)cc1S(=O)(=O)NC(C)(C)C,inactive [sample A] and active: 12.6 µM [sample B]

# Reference: PubChem BioAssay AID588855 (National Center for Advancing Translational Sciences (NCATS), 2011)
